SMILES strings stand for the structures. In all, about 310,000 compounds went through this assay and about 14,000 (4.5%) showed an effect of 50% or more. Effects have a minus sign here. The list shows a part of the results.
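Also: peak tail current of the secondary pulse compared with the same well before compound.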

The assay deals with human ether-à-go-go-related gene (hERG) potassium channel (human, UniProt Q12809). As to the kind of experiment: primary screen, population patch clamp on CHO cells stably expressing hERG.
Sequence of human ether-à-go-go-related gene (hERG) potassium channel (Q12809 whole entry, looked up): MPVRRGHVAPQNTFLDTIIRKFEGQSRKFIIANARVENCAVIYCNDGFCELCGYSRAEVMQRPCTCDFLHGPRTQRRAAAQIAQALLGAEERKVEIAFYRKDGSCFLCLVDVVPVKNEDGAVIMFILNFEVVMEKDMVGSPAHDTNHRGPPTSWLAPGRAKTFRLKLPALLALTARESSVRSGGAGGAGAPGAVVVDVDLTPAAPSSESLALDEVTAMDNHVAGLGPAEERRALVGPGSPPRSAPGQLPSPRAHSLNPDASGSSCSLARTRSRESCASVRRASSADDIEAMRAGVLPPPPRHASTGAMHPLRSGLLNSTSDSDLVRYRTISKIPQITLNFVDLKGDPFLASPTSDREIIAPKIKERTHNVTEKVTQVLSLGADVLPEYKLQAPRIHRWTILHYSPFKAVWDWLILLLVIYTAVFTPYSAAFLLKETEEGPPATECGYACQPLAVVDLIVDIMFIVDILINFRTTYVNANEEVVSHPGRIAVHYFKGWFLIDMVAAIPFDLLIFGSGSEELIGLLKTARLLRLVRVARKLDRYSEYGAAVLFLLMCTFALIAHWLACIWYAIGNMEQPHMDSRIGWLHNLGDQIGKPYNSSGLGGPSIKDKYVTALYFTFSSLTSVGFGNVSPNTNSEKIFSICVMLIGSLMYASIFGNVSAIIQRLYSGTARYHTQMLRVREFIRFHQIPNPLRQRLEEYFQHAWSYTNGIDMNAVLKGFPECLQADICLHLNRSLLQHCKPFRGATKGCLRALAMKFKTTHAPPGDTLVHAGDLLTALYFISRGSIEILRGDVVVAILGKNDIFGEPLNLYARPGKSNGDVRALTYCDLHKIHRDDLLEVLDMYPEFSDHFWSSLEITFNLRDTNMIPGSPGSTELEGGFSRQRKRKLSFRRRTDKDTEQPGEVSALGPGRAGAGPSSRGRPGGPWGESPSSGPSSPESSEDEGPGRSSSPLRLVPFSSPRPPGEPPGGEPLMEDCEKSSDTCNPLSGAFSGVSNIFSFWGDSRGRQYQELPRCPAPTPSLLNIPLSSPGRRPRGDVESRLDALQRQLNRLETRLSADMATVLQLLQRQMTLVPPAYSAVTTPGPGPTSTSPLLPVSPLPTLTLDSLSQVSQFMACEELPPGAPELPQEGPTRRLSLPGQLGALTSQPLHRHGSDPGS
Turning to `O=C(Cc1c(F)cccc1Cl)Nc1ncc([N+](=O)[O-])s1`, the “hERG current change (%, negative = inhibition) at 10uM” value worked out at 20.9%. The result for `CCCCNC(=O)Nc1nc2ccccc2s1` reads -5.74%. For `O=C(O)Cn1c(=O)c2c3c(sc2n(Cc2ccc(F)cc2)c1=O)CCCC3`, the “hERG current change (%, negative = inhibition) at 10uM” value was found to be 17.9%. As to `COc1ccccc1NS(=O)(=O)c1ccc(N/N=C/c2ccccc2OCC(=O)O)c([N+](=O)[O-])c1`, the “hERG current change (%, negative = inhibition) at 10uM” value is listed as -1.09%. The result for `CC(=O)c1c(C)[nH]c(C(=O)N2CCN(S(=O)(=O)c3ccc(C)cc3C)CC2)c1C` reads -19.2%; that for `Cc1cccn2cc(CCNC(=O)c3cccs3)nc12`, -7.55%. The result for `CCN(CC)C(=O)CSc1ncnc2c1nnn2-c1ccc(F)cc1` reads -3.22%; that for `Cc1nnc2sc(-c3csc4c3CCCC4)nn12`, -18.2%. `O=C1c2sc3nc4c(c(=O)n3c2C(=O)N1c1ccccc1)CCC4`: the “hERG current change (%, negative = inhibition) at 10uM” value is -3.29%. Then `O=C(CN(C(=O)c1csnn1)c1cccc(F)c1)NC1CCCC1`, with 17.3%. Then `N#CCc1ccc(NC(=O)c2ccc(S(=O)(=O)N3CCOCC3)cc2)cc1`, with 1.97%; and `Cn1c(NNC(=O)c2cccc3ccccc23)cc(=O)n(C)c1=O`, with 6.73%. Regarding `COc1ccc(NC(=O)c2cccnc2C(=O)O)c(OC)c1`, the “hERG current change (%, negative = inhibition) at 10uM” value is given as 15.6%. The result for `O=C(COC(=O)/C(=C/c1cccs1)c1cccs1)NC(c1ccccc1)c1ccccc1` reads 7.68%; that for `FC(F)(F)c1cccc(NC(=S)NNC(=S)Nc2cccc(C(F)(F)F)c2)c1`, 23.7%; that for `Cc1[nH]c2ccccc2c1C(=O)CSc1nc2ccccc2[nH]1`, 1.74%. Then `CN1CCN(C(=O)C2CC(=O)N(c3ccc(Cl)cc3)C2)CC1` (stereo not shown), with -17.7%; and `Br.NS(=O)(=O)c1ccc(Nc2nc(-c3cccc([N+](=O)[O-])c3)cs2)cc1`, with 31.9%; and `OC(c1ccc(F)cc1)C(CN1CCOCC1)c1ccccc1` (stereo not shown), with 5.57%.

With `Cc1nc2ccccc2nc1OCC(=O)Nc1ccc2ccccc2c1`, the “hERG current change (%, negative = inhibition) at 10uM” value is recorded as -6.32%.

`Cn1cc(/C=N/NC(N)=S)c2ccccc21`: the “hERG current change (%, negative = inhibition) at 10uM” value is 0.216%. In the case of `Cc1ccc(NC(=O)CN2C(=O)NC(Cc3c[nH]c4ccccc34)C2=O)cc1S(=O)(=O)N1CCCCC1` (stereo not shown), the “hERG current change (%, negative = inhibition) at 10uM” value is 1.38%. In the case of `COc1cc2nc(Cl)nc(N3CCCCC3)c2cc1OC`, the “hERG current change (%, negative = inhibition) at 10uM” value is -15.6%. The result for `COc1ccc(CCNCC(O)Cn2c3ccccc3c3ccccc32)cc1OC` (stereo not shown) reads -4.71%; that for `Cn1cccc1Cc1nnc(SCC(=O)NC2CCCCC2)n1-c1ccc(F)cc1`, -16.9%; that for `Cc1ccc(S(=O)(=O)N2CCN(C(=O)COC(=O)CNC(=O)c3ccccc3)CC2)c(C)c1`, -22.9%. Then `Cc1cc(=O)oc2c(C)c(OCC(=O)N3C[C@H]4C[C@@H](C3)c3cccc(=O)n3C4)ccc12`, with -0.0288%; and `Cc1cc(C)c2c(CN3CCN(Cc4ccc5c(c4)OCO5)CC3)cc(=O)oc2c1C`, with -45.8%. Then `CCN(C(=O)c1ccco1)c1nc(CC(=O)Nc2ccc(Cl)cc2)cs1`, with -6.6%; and `CCN(CC)CCn1c2c(c(SCC(=O)Nc3ccccc3Cl)nc1=O)CCC2`, with -59.8%; and `CC(NC1CCCC1)C(=O)Nc1ccccc1-c1ccccc1` (stereo not shown), with 4.92%. As for `CCOC(=O)N1CCN(C(=O)c2cc(-c3ccc(OCC)cc3)nc3ccccc23)CC1`, the “hERG current change (%, negative = inhibition) at 10uM” value is recorded as -31.1%.

On to `Cc1cc(C)c2sc(NC(=O)c3ccc(N4C(=O)CCC4=O)cc3)nc2c1`, for which the “hERG current change (%, negative = inhibition) at 10uM” value was found to be 2.56%. For the compound `COc1ccc(/C=N/NC(=O)c2sc(C)nc2C)cc1`, the “hERG current change (%, negative = inhibition) at 10uM” value is reported as 9.17%. On to `COc1ccc(N2CC(NS(=O)(=O)c3ccc(F)cc3)CC2=O)cc1` (stereo not shown), for which the “hERG current change (%, negative = inhibition) at 10uM” value turned out to be 21%. The result for `COc1ccc(N2CCN(C(=O)COC(=O)Cc3c(F)cccc3Cl)CC2)cc1` reads -79%; that for `Cc1c(NC(=O)COC(=O)C2CC3C=CC2C3)c(=O)n(-c2ccccc2)n1C` (stereo not shown), 13.2%; that for `N#Cc1c(NC(=O)CSc2nc3ccccc3s2)sc2c1CCCC2`, 7.12%. Then `O=c1c2ccccc2nc2c3ccccc3c(NCc3ccccn3)nn12`, with -13.5%. In the case of `COc1ccc(OC)c(S(=O)(=O)Nc2cc3c4c(c2)CCN4C(=O)CC3)c1`, the “hERG current change (%, negative = inhibition) at 10uM” value is recorded as -2.69%.

With `Cc1ccc(NC(=O)C2CC2C)cc1S(=O)(=O)N1CCOCC1` (stereo not shown), the “hERG current change (%, negative = inhibition) at 10uM” value is recorded as -21.4%. Then `CCS(=O)(=O)n1nc(-c2ccccc2)nc1NCc1ccco1`, with -29.9%. The result for `CSc1nc(C)cc(C)c1C(N)=O` reads 8.49%.

Regarding `COCCNCCCCOc1ccccc1-c1ccccc1.O=C(O)C(=O)O`, the “hERG current change (%, negative = inhibition) at 10uM” value is recorded as -27.5%. `COCCNCC(=O)C12CC3CC(CC(C3)C1)C2.Cl`: the “hERG current change (%, negative = inhibition) at 10uM” value is given as 4.15%. Then `CS(=O)(=O)N(Cc1ccccc1Cl)c1ccc(C(=O)N2CCCC2)cc1`, with 4.59%; and `O=c1c2ccccc2ncn1CCCSc1ccc(Cl)cc1`, with -4.74%; and `COc1ccc(C)cc1S(=O)(=O)n1nc(C)cc1C`, with 23.8%. Then `CN1CCN(S(=O)(=O)c2ccc(NS(=O)(=O)c3ccccc3)cc2)CC1`, with 14.5%. Then `COc1ccc(S(=O)(=O)N2CCN(CCC(=O)Nc3ccc(F)cc3)CC2)cc1`, with -18.9%. Take `CCCCCCn1c(SCC(=O)c2c(N)n(C)c(=O)n(C)c2=O)nc2ccccc21`: the “hERG current change (%, negative = inhibition) at 10uM” value is reported as -1.34%.

For the compound `CCO/C=C1/C(=O)N(CC)c2ccccc21`, the “hERG current change (%, negative = inhibition) at 10uM” value is -8.33%. Then `Cc1ccc(C)c(OCCC(=O)N(C)CC(=O)Nc2c(C)cccc2C)c1`, with -8.69%. Then `Cc1nnsc1S(=O)c1ccc(Br)cc1` (stereo not shown), with -1.16%. The result for `COc1ccc(C(CNC(=O)c2cncc(Br)c2)N(C)C)cc1` (stereo not shown) reads -1.84%; that for `OC1(C2(O)CC(c3ccccc3)ON2)CCCCC1` (stereo not shown), 3.57%.

On to `COc1cc(C2NC(=O)C(C#N)=C(S)N2c2ccc(C)cc2)ccc1OC(C)C` (stereo not shown), for which the “hERG current change (%, negative = inhibition) at 10uM” value was found to be 16.2%. Then `Cc1nc2cc(N3CCOCC3)c(NC(=O)C3CC3)cc2c(=O)n1Cc1ccccc1`, with -29.3%; and `Cc1c(N(C(=O)Cc2cccs2)C2(C(=O)NC3CCCC3)CCCCC2)c(=O)n(-c2ccccc2)n1C`, with -49.7%. Then `C/C(CC(C)C)=N\NC(=O)Nc1ccccc1`, with -40.8%. The result for `Cn1c(=O)c2c(ncn2CC(=O)N(Cc2ccccc2)c2ccccn2)n(C)c1=O` reads -50.7%.

`Clc1ccc(Cn2cc(/C=N/n3cnnc3)c3ccccc32)cc1`: the “hERG current change (%, negative = inhibition) at 10uM” value is reported as -14.5%. Then `O=C(c1ccc(-n2cnnn2)cc1)N1CCOCC1`, with -1.64%; and `CCCCC(CC)CNS(=O)(=O)c1ccc2c(c1)CCN2C(=O)CCC(=O)O` (stereo not shown), with -5.1%. Then `O=C(Nc1ccccc1N1CCCCC1)c1cccc(Cl)c1`, with 13.5%; and `CNS(=O)(=O)c1cccc(C(=O)OC2CCOC2=O)c1` (stereo not shown), with 12.5%; and `CS(=O)(=O)N1CCc2cc(C(=O)Nc3ccc(O)cc3)ccc21`, with 12.9%. As for `COc1cccc(OC)c1C(=O)N1CCN(Cc2ccc3c(c2)OCO3)CC1`, the “hERG current change (%, negative = inhibition) at 10uM” value was -12%. The result for `CC1=Nn2c(nnc2-c2cc(-c3ccccc3)n[nH]2)SC1` reads 1.7%; that for `O=C(CCN1C(=O)c2cccc3cccc(c23)C1=O)NCc1cccnc1`, -16.7%; that for `CN(C)c1ccc(C(C(=O)NC2CCCCC2)N(Cc2ccco2)C(=O)c2snc(C(N)=O)c2N)cc1` (stereo not shown), -24.2%. For the compound `COc1ccccc1N1CCN(C2CCCN(C(=O)CCN3CCCCO3)C2)CC1` (stereo not shown), the “hERG current change (%, negative = inhibition) at 10uM” value is 8.84%. Then `Cc1ccsc1C(=O)NNC(=O)c1ccc(NS(=O)(=O)c2cccs2)cc1`, with 20.4%. Then `O=C(NC1CCCCCCC1)c1cccs1`, with 8.39%. The result for `O=C(NC(c1ccccc1)c1ccccc1)C1CCCC1` reads 11.2%; that for `CCOc1ccccc1N1CCN(C(=O)c2cccc(S(=O)(=O)N3CCOCC3)c2)CC1`, -11.6%; that for `COCCNC(=O)Cn1cc(/C=N/NC(=O)c2ccc(Oc3ccc(O)cc3)cc2)c2ccccc21`, 10.5%. Turning to `Cc1sc2ncnc(N3CCCCC3C)c2c1C` (stereo not shown), the “hERG current change (%, negative = inhibition) at 10uM” value is -13.6%. `O=C(O)C(NC(=O)c1ccccc1)=C(Cl)Cl`: the “hERG current change (%, negative = inhibition) at 10uM” value was determined as 19.6%.

With `COc1cc(S(=O)(=O)NC2CC(C)(C)NC(C)(C)C2)c(OC)cc1Cl`, the “hERG current change (%, negative = inhibition) at 10uM” value is 5.37%.

As to `Fc1ccc(C2c3cccn3CCN2C(=S)Nc2cccc(F)c2)cc1` (stereo not shown), the “hERG current change (%, negative = inhibition) at 10uM” value was 6.02%.

On to `CN(C(=O)c1ccncc1)c1ccccc1`, for which the “hERG current change (%, negative = inhibition) at 10uM” value is on record as 20.8%. Then `Cc1cc(C)c2c(n1)sc1c(=O)[nH]c(SCc3ccccc3)nc12`, with 3.41%. `Cc1ccccc1CN1CCC(n2nccc2NC(=O)CCCc2ccccc2)CC1`: the “hERG current change (%, negative = inhibition) at 10uM” value is given as -49.3%. Regarding `CCOc1ccc(NC(=O)Nc2ccc3c(c2)nc(C)n3C)cc1`, the “hERG current change (%, negative = inhibition) at 10uM” value was 1.49%. Then `C/C(=N/NC(=O)CNC(=O)CCc1ccccc1)c1ccc(Cl)c(Cl)c1`, with 10.3%; and `CCc1nnc(NC(=O)CCS(=O)(=O)c2ccccc2)s1`, with 23.8%. Then `COc1ccc(S(=O)(=O)N[C@@H](Cc2ccccc2)C(=O)N2CC[C@@]3(O)CCCC[C@H]3C2)cc1`, with -14.9%.
